Consider two molecules from article PMC4806292.

Assay [1] has as its target ACBD3 Q domain (residues 241-308) (human) (UniProt Q9H3P7). The assay can be described thus: NMR structure; solution structure of the co-expressed 15N/13C labelled complex, 470 μM, 25 mM sodium phosphate pH 6.5, 100 mM NaCl, 1 mM TCEP, 25 °C; both purified.
Assay [2] concerns the target PI4KB N-terminal region (residues 1-68) (human) (UniProt Q9UBF8). As to the kind of experiment: AUC; sedimentation velocity, ACBD3 Q domain and PI4KB N-terminal region, 35 μM (both proteins); 10 mM Tris pH 8, 200 mM NaCl, 3 mM β-mercaptoethanol, 20 °C, 48000 rpm; c(s) model; both purified.
In assay [3] the target is ACBD3 Q domain (residues 241-308) (human) (UniProt Q9H3P7). The description is as above.
Assay [4] deals with T1, Acyl-coenzyme A binding domain containing protein 3 (ACBD3), full length, untagged (human), Q9H3P7.
T1 chain: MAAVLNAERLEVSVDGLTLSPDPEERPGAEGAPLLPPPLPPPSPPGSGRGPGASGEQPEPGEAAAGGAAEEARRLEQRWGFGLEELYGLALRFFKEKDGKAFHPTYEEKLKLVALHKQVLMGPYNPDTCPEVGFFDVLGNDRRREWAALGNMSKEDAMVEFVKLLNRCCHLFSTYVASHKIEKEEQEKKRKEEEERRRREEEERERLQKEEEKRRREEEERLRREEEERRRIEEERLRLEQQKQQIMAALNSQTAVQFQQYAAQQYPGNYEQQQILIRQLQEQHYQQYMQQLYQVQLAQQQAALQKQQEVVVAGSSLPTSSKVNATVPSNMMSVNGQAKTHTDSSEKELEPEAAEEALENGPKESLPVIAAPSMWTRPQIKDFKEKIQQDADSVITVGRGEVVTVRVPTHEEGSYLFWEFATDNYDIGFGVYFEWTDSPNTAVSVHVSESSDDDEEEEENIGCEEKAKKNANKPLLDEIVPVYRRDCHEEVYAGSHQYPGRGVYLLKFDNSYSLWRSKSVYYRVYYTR
As to the kind of experiment: AUC; sedimentation velocity, full-length proteins alone and as complex, 5 μM (both proteins); 10 mM Tris pH 8, 200 mM NaCl, 3 mM β-mercaptoethanol, 20 °C, 48000 rpm; c(s) model; both purified. Conditions: remark: other sources report otherwise.

No constants are given. Whether binding was seen depends on the method and setting. Some entries that bind do so weakly or less than the wild type. For some of these results: Sequences can lack the tags named with a protein.

B1: PI4KB N-terminal region (residues 1-68) (domain or fragment, UniProt Q9UBF8 1-68)
chain: MGDTVVEPAPLKPTSEPTSGPPGNNGGSLLSVITEGVGELSVIDPEVAQKACQEVLEKVKLLHGGVAV
On to B1, for which the binding result in assay [1] was “binds”; in assay [2] it was “no binding (tested: 35 μM)”; in assay [3], “binds”.

B2: Acyl-coenzyme A binding domain containing protein 3 (ACBD3), full length, untagged, Q9H3P7 1-528 (protein)
chain: MAAVLNAERLEVSVDGLTLSPDPEERPGAEGAPLLPPPLPPPSPPGSGRGPGASGEQPEPGEAAAGGAAEEARRLEQRWGFGLEELYGLALRFFKEKDGKAFHPTYEEKLKLVALHKQVLMGPYNPDTCPEVGFFDVLGNDRRREWAALGNMSKEDAMVEFVKLLNRCCHLFSTYVASHKIEKEEQEKKRKEEEERRRREEEERERLQKEEEKRRREEEERLRREEEERRRIEEERLRLEQQKQQIMAALNSQTAVQFQQYAAQQYPGNYEQQQILIRQLQEQHYQQYMQQLYQVQLAQQQAALQKQQEVVVAGSSLPTSSKVNATVPSNMMSVNGQAKTHTDSSEKELEPEAAEEALENGPKESLPVIAAPSMWTRPQIKDFKEKIQQDADSVITVGRGEVVTVRVPTHEEGSYLFWEFATDNYDIGFGVYFEWTDSPNTAVSVHVSESSDDDEEEEENIGCEEKAKKNANKPLLDEIVPVYRRDCHEEVYAGSHQYPGRGVYLLKFDNSYSLWRSKSVYYRVYYTR
B2: the binding entry in assay [4] is reported as “no binding (tested: 5 μM)”.
